Laboratory results: ChEMBL document CHEMBL4888484, “Replenishing the malaria drug discovery pipeline: Screening and hit evaluation of the MMV Hit Generation Library 1 (HGL1) against asexual blood stage Plasmodium falciparum ,using a nano luciferase reporter read-out” (2022)
Screen size: about 150,000 compounds; about 540 (0.36%) showed an effect of 50% or more. The list shows a part of the results.

System: Plasmodium falciparum
Experiment: Primary screen in NF54 nanoGlo assay, in single point, at 2uM, 72h; a lower Z score goes with more inhibition
Format: functional, Erythrocyte
Settings: timepoint 72 hour

Compound | % Inhibition | Z score
COc1ccc(OC)c2c1cc(C(=O)Nc1nc(C)c(C)s1)n2C | -5% | 0.75
COc1ncnc(OC)c1C(=O)N1CCC[C@H]1C=Cc1ccccc1 | 30% | -4.38
CN(C(=O)CCc1ccccc1O)C1CCCC1S(C)(=O)=O (stereo unspecified) | 0% | 0.05
CC1(CC(F)(F)F)CN(C(=O)Nc2cccnc2-c2ccco2)C1 | -11% | 2.04
O=S(=O)(c1ccc(N2CCC(Cc3ccccc3)CC2)nc1)N1CCCC1 | -33% | 3.86
c1ccc(CNCC[C@H]2CCCOC2)cc1 | -9% | 0.94
CCC[C@H](Nc1nc(-c2ccccc2)nc2c1CCNC2)c1nccn1C | -9% | 1.3
CCOC(C)C(=O)Nc1ccc(NC(=O)C(C)OCC)c(OC)c1 (stereo unspecified) | 3% | -0.4
O=C1CO[C@@H](CNc2nc3ccccc3o2)CN1CC1CCN(CC2CC2)CC1 | 0% | 0.08
CCOC1CC(NC(=O)NC2CC2)C12CCCC2 (stereo unspecified) | -8% | 1.16
Cn1cc([C@H]2OCC[C@@H]2NC(=O)NC2CC23CCOCC3)cn1 (stereo partly specified) | -5% | 0.53
COCCN1CCC(NC(=O)NC(c2ncccc2C)C(C)C)C1 (stereo unspecified) | -7% | 1.38
O=C(NCCOc1ccc2c(c1)OCO2)c1ccnc(C2CC2)n1 | -12% | 1.58
COc1ccccc1CC(=O)NCc1nc(C2CCC(F)(F)CC2)no1 | -11% | 1.35
O=C(NCc1ccco1)NCC1CCOCC1 | 0% | 0.04
Cc1ccc(-n2nnnc2N(C)Cc2nnc3ccccn23)cc1 | -5% | 0.94
CCS(=O)(=O)N1CCC[C@H](Oc2cc(C)nc(C)n2)C1 | 5% | -0.63
O=C(O)[C@H]1CN(C(=O)C2(N3CCCC3)CCCCC2)C[C@@H]1c1cccnc1 | -10% | 1.2
O=C(NCc1ccccc1F)c1nn(-c2ccccn2)c2nccc(-c3cccs3)c12 | -9% | 1.56
Cc1cc(F)ccc1S(=O)(=O)N1CCC[C@H](Oc2cc(C#N)ccn2)C1 | 5% | -0.66
COc1cccc(CNC(=O)c2c(C)noc2-c2cccnc2)c1 | -8% | 0.82

Compound | % Inhibition | Z score
CCOCc1nc2c(c(N3CC=CCC3)n1)CCN(CCN)CC2 | 0% | 0.01
CC(C)[C@H]1C(=O)NCCN1C(=O)c1cc(C(F)(F)F)n[nH]1 | -9% | 1.82
Cn1nc(-c2ccccc2)nc1C1CN(C(=O)NC[C@H]2CCCO2)C1 | 28% | -3.81
O=C(NCC1(C(F)(F)F)CCC1)c1occ2c1CCC2 | -11% | 0.91
C[C@H]1c2ccc(Cl)n2CCN1C(=O)CCc1ccc(=O)[nH]c1 | -3% | 0.55
CC(C)(C)c1cc(C(=O)N2C[C@@H]3[C@@H]4CC[C@@H](C4)[C@@H]3C2)[nH]c(=O)n1 | -13% | 1.58
Cc1ccc(-n2nc(-c3noc(CCC(=O)N[C@@H](C)CCc4ccccc4)n3)c(=O)n(C)c2=O)cc1 | 8% | -1.38
Cc1ccc(C(=O)NCc2ccc(N3CCNC(=O)C3)cc2)n1C | -4% | 0.47
O=C(Cn1cnc2ccccc21)N1CCC[C@H](Oc2cccnn2)C1 | -9% | 1.03
O=C(Nc1ccc(F)cc1)c1nnc(C(=O)N2CCC(C(=O)NCCN3CCCC3)CC2)s1 | -15% | 1.3
COc1ccc(-n2ncc3c2CC(C)(C)C[C@@H]3NS(=O)(=O)C2CC2)cc1 | -9% | 1.43
O=c1ccn(Cc2nnc(-c3ccc(Cl)cc3)o2)c2ccsc12 | -7% | 0.78
C=CCNCCOc1ccc(Cl)c(Cl)c1 | -6% | 0.83
O=C(CN1CCOCC1)N1CCN(C(=O)c2cc3ccccc3s2)CC1 | 2% | -0.37
CCN(CC)C(=O)c1cn(C[C@H]2CCCN(C(=O)c3cc(OC)ccc3OC)C2)nn1 | -13% | 2.67
CCn1ccc2cc(CCC(=O)NCc3ccco3)ccc21 | -6% | 0.96
O=C(Nc1ccc2c(c1)OCO2)C1CCN(C(=O)c2ccc(N3CCCC3=O)cc2)CC1 | 13% | -1.53
COc1ccc(C(=O)N2C[C@H]3CCCC(=O)N[C@H]3C2)c(C)c1 | -5% | 0.8
O=C(OCc1cn(-c2ccc(F)cc2Cl)nn1)c1cscn1 | -11% | 1.57
CC(CC1CCOCC1)NC(C)C(=O)Nc1ccccc1 (stereo unspecified) | -7% | 0.66
Cc1ccc(NC(C)(C)C(=O)NC2CCN(Cc3ccco3)CC2)cc1 | -7% | 0.63

Compound | % Inhibition | Z score
COc1ccc([C@@H]2CC[C@@H](C(=O)O)N2S(=O)(=O)c2ccsc2)cc1 | -7% | 1.48
COC[C@@H]1CCCN1C(=O)Nc1cc(-c2nnc(C)o2)ccc1OC | -9% | 1.09
Cc1occc1C(=O)NCC(F)(F)CN | -6% | 0.67
FCCOc1ccc(-c2cccc3c2OCCCO3)nc1 | -13% | 1.28
Cc1cccc(N2CCN(c3cc(C)nc4nc(-c5ccccc5)nn34)C[C@@H]2C)c1 | 9% | -1.33
Cc1oc2nc(CN(C)Cc3ccc(F)cc3)nc(N)c2c1C | -2% | 0.2
CCc1ccc(S(=O)(=O)Nc2cccc(C3OCCCO3)c2)cc1 | -2% | 0.25
Cc1ccc2nc(CN3CC[C@H](N4CCOCC4)[C@H](CCCO)C3)cn2c1 | 2% | -0.28
O=C(NC[C@H]1CCCN(c2ncccn2)C1)C1(N2CCCC2)CCCC1 | -1% | 0.15
Cc1cccc(C)c1N1CCN(C(=O)c2coc(CN3CCN(C[C@H](O)C(C)C)CC3)n2)CC1 | -25% | 2.19
O=C(Cc1ccsc1)NCC1(Cn2ccnc2)CC1 | -4% | 0.58
CN1CCC(Oc2nc3ccc(F)cc3o2)CC1 | -11% | 1.44
CC(C)NC(=O)N[C@@H]1CC[C@H]2CCOc3ccccc3C(=O)N3CCNC[C@H]3C(=O)NC[C@H]1O2 | -11% | 1.74
CN1CC(=O)N([C@H]2CCCc3cnccc32)C1=O | -4% | 0.44
C[C@H]1C(=O)N(c2cccc3ccccc23)CCN1Cc1ccc(F)cc1 | -3% | 0.42
Cc1cc(C(=O)N2CC(C)(C)N(C(=O)c3cc(C)nn3C)C[C@@H]2C)n(C)n1 | 2% | -0.28
COCCOC1CN(C(=O)C(C)(C)c2cccnc2)C1 | 2% | -0.29
O=C(CN1CCN([C@H]2CCOC2)CC1)Nc1nc2ccc(F)cc2s1 | -6% | 0.81
Fc1cnccc1N[C@H]1CCCN(c2ncccn2)C1 | -7% | 1.14
N#Cc1ccc(CO[C@@H](CN2CCN(C(=O)c3cccs3)CC2)c2cccc(N3CCCC3)c2)cc1 | -12% | 1.57
Cc1oc(C)c(C(=O)NCCc2ccccn2)c1Br | -13% | 1.31

Compound | % Inhibition | Z score
O=C1NC(=O)[C@@H]2CN(C(=O)Nc3cc(F)c(F)cc3N3CCCCC3)C[C@H]12 | -6% | 1.16
CCc1nnc([C@H](C)n2ccc(C(F)(F)F)n2)o1 | -19% | 2.9
Cc1cnc(C(=O)N[C@@H]2CCC[C@@H]2C(=O)NCCCc2ccccc2)cn1 | -5% | 0.68
Cn1cc(-c2ccc3c(c2)OCC[C@@H]2CC[C@H](O)[C@@H](CNC(=O)[C@@H]4CN(C5CCC(F)(F)CC5)CCN4C3=O)O2)cn1 | 1% | -0.11
COC(=O)NCc1ccc(N[C@H]2CCCN(c3ccccc3Cl)C2=O)cc1 | 1% | -0.08
COc1cc(C(=O)NCc2noc(C3CCCC3)n2)cc(OC)c1OC | -3% | 0.39
CCc1ccc(CN(C)Cc2c[nH]nc2-c2ccc3cc(OC)ccc3c2)nc1 | 10% | -1.27
CNC(=O)[C@@H]1CCCN1C(=O)NCc1cnc(CC(C)C)s1 | 3% | -0.4
C[C@H]1CCc2c(cnc3c(C(=O)NC4CC4)cnn23)C1 | 34% | -4.89
Cc1nsc(NC(=O)N(C)C2CCCCCC2)n1 | -12% | 1.52
Cc1cc(C)n(CCNCc2cc3ccc(F)cc3n(Cc3ccccn3)c2=O)n1 | 11% | -1.47
COc1ccc(CCNC(=O)c2cc3c(=O)[nH]c(C)cn3n2)cc1OC | 61% | -7.83
CN1CCN(C(=O)[C@@H]2COC3(CCN(C(=O)c4cccc(F)c4)CC3)N2C(=O)c2ccc(F)cc2)CC1 | -10% | 1.57
Cn1nc2c(c1C(=O)NCc1csc(N)n1)CCCC2 | 5% | -0.77
Cc1cc(CC(=O)NC(Cc2ccccn2)[C@H]2C[C@H](O)C2)on1 (stereo partly specified) | -19% | 2.49
CC[C@H](C)CN1C(=O)CNC12CCN(C(=O)c1ccc(OC)cc1)CC2 | -12% | 1.62
CC(=O)N(Cc1ccccc1)c1ccc2c(c1)nc(Cn1nc(C)cc1C)n2C | 35% | -4.52
C=CCCC(=O)N1CCC(c2ncc(C)s2)CC1 | 7% | -0.87
CC1CC1C(=O)N(CC(=O)O)C1CCCCC1 (stereo unspecified) | -3% | 0.44
COCc1nc([C@@H]2CCCCCN2S(=O)(=O)c2ccccc2F)no1 | 10% | -1.64
